# Hit rate of the full screen: of about 310,000 compounds, about 2,200 (0.71%) showed an effect of 50% or more. Effects have a minus sign here. The list shows a part of the results.
# Biological target: human ether-à-go-go-related gene (hERG) potassium channel (human, UniProt Q12809)
# Assay: primary screen, population patch clamp on CHO cells stably expressing hERG
# human ether-à-go-go-related gene (hERG) potassium channel, sequence (Q12809 whole entry, looked up): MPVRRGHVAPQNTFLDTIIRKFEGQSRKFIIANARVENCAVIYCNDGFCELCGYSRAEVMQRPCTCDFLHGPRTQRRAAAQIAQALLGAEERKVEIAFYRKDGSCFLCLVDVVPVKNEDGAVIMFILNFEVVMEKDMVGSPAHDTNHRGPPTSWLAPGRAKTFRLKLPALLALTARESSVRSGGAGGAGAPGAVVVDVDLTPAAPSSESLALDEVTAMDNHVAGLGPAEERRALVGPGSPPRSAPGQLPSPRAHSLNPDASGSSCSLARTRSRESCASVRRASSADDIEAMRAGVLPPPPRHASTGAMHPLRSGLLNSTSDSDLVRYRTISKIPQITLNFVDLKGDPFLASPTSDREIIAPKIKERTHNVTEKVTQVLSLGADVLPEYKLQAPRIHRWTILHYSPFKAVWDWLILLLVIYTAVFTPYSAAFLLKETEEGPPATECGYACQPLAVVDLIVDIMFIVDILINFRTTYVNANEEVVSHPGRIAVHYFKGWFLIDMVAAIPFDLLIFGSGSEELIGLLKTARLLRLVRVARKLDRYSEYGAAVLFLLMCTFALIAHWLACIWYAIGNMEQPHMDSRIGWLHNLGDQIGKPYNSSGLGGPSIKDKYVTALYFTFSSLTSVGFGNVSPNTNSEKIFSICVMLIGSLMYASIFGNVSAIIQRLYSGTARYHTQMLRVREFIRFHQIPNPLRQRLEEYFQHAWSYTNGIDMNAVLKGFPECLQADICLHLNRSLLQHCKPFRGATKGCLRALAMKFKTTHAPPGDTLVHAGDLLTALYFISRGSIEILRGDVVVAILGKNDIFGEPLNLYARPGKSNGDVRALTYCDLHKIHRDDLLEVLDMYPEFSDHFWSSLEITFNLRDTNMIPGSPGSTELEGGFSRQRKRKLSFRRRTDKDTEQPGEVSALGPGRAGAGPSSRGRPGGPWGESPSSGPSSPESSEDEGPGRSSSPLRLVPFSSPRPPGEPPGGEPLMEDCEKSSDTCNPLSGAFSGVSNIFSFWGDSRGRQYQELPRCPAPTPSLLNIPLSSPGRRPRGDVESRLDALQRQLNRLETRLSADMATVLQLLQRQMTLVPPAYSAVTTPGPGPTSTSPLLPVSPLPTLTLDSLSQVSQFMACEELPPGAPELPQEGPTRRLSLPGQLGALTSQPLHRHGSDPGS
row,Structure (SMILES),"hERG current change (%, negative = inhibition) at 1uM [%]"
1,COC(=O)CC1C(=O)NC2CCCCC2N1C(=O)c1ccccc1 (stereo not drawn),5.77
2,CC(C)(C)c1ccccc1NC(=O)C1=COCCO1,-8.88
3,COc1ccc(CNC(=O)CN(c2cc(C)cc(C)c2)S(=O)(=O)c2c(C)noc2C)cc1,3.27
4,COc1ccc(CCNC(=O)c2ccn[nH]2)cc1OC,2.84
5,Cc1ccc2nc(Nc3ccc(C)c(C)c3)c3nncn3c2c1,11.7
6,O=C(O)CNC(=S)N(Cc1ccccc1Cl)C1CCCC1,7.28
7,COC(=O)c1ccc(NC(=O)CSc2nnc(C(C)NC(=O)c3ccccc3Cl)n2C)cc1 (stereo not drawn),20.5
8,Cc1c(C)c2cc(Cl)c(O)c(CN3CCN(C)CC3)c2oc1=O,11
9,Cc1cc(C)n(-c2ccc(C(=O)N3CCN(S(=O)(=O)c4ccc(Cl)cc4)CC3)cc2)n1,13
10,CCCCc1nc2sc3c(SCCN(C)C)ncnc3c2c2c1CCC2,13.9
11,O=C(Nc1ccc2c(c1)OCO2)C1CCN(S(=O)(=O)c2cccs2)CC1,-3.53
12,O=S(=O)(c1ccc(F)cc1)N1CCc2ccccc2C1,6.14
13,Cc1ccc(NC(=O)CNCc2ccccn2)cc1S(=O)(=O)N(C)C,10.3
14,CCCCOc1ccc(C(C)NC(=O)C2CCCN(S(=O)(=O)CCC)C2)cc1 (stereo not drawn),5.85
15,Cc1cnc(CN2CCc3c([nH]c4ccccc34)C2CC(C)C)[nH]1 (stereo not drawn),-5.73
16,Cc1ccc(NC(=O)COC(=O)CN2CCCCCC2=O)c(C)c1,-6.62
17,COC(=O)C1=COC(C)C2CN3CCC4(C(=O)Nc5ccccc54)C3CC12 (stereo not drawn),3.46
18,Cc1ccccc1-c1nsc(SCC(=O)Nc2ccc3c(c2)OCO3)n1,16.1
19,Cc1cc(=O)oc(C)c1C(=O)NCc1cccnc1,13.3
20,COc1ccc(CCNC(=O)COC(=O)C23CC4CC(CC(Br)(C4)C2)C3)cc1,24.6
21,CC(C)c1nc2oc3c(=O)[nH]cnc3c2c2c1COC(C)(C)C2,-0.741
22,O=C(N=Nc1c(O)[nH]c2ccccc12)c1cc(NS(=O)(=O)c2cccs2)cc(NS(=O)(=O)c2cccs2)c1,11.3

row,Structure (SMILES),"hERG current change (%, negative = inhibition) at 1uM [%]"
1,C=CCn1cnc2c(c1=O)c1nc3ccccc3nc1n2/N=C/c1cc(OC)c(OC)c(OC)c1,16.7
2,C(=N\n1cnnc1)/c1ccc2c(c1)OCO2,7.48
3,O=C(NC1CCCCC1)c1ccc2c(c1)OCO2,17.2
4,COc1cc(/C=C\C(=O)Nc2cc(=O)n(C)c(=O)n2C)cc(OC)c1OC,5.6
5,Cc1ccccc1CCNC(=O)CCn1ccc2cc(S(=O)(=O)N3CCCC3)ccc21,11.1
6,O=C1CCCN1CC1CCN(Cc2nc(CC3CC3)no2)CC1,8.49
7,Nc1ccccc1SC1CC(=O)N(c2ccc(Cl)c(Cl)c2)C1=O (stereo not drawn),14.6
8,CCOc1ccc(C2N(c3ccc(F)cc3)C(=O)C3CCCN32)cc1 (stereo not drawn),8.19
9,O=C(c1ccc(Cl)cc1)N1CCn2c1nc1ccccc12,7.27
10,Cc1cccc(C(=O)N[C@@H]2c3ccccc3C[C@@H]2O)n1,10.3
11,COc1ccc(/C=N/S(=O)(=O)CCc2ccccc2)c(OC)c1,4.56
12,Cc1cc(=O)oc2c(C)c(OC(C)C(=O)NCCCN3CCCC3=O)ccc12 (stereo not drawn),17.5
13,Cc1ccc(NC(=O)C2CCN(S(=O)(=O)c3ccc4c(c3)OCCCO4)CC2)nc1,0.3
14,Cc1ccccc1OCC(O)CN(Cc1ccccc1O)C1CCCCC1 (stereo not drawn),8.99
15,O=c1[nH]c(=S)n(C2CC2)c(O)c1C=Nc1ccc2c(c1)OCO2,7.94
16,CCCCCC(=O)O/N=C(\C)c1ccn(S(=O)(=O)c2ccccc2)c1,9.02
17,COc1cc(NC(=O)CCN2CCN(Cc3ccccc3)CC2)cc(OC)c1,9.21
18,CC1Cc2cc(/C(O)=C3/C(=O)C(=O)N(CCCn4ccnc4)C3c3ccco3)ccc2O1 (stereo not drawn),7.33
19,COc1ccc(OCC(=O)Nc2ccc(S(=O)(=O)N3CCCC3)cc2)cc1,4.6
20,O=C(Cn1c(=O)oc2cc(S(=O)(=O)N3CCCC3)ccc21)Nc1cccc(C(F)(F)F)c1,9.23
21,O=C1c2ccccc2C(Nc2ccc(S(=O)(=O)N3CCOCC3)cc2)N1Cc1ccco1 (stereo not drawn),-3.38
22,Cc1ccc(S(=O)(=O)N2CCN(CC(=O)N/N=C\C(Cl)=C\c3ccccc3)CC2)cc1,6.08

row,Structure (SMILES),"hERG current change (%, negative = inhibition) at 1uM [%]"
1,Brc1ccccc1-c1nnc(SCc2nc3ccccc3s2)o1,14.3
2,Cc1ccc(CN2CCc3c(OCc4ccc(F)cc4)cccc3C2=O)cc1,13.7
3,COc1ccc(-c2cc(C(=O)Nc3c(C)nn(Cc4ccccc4Cl)c3C)no2)cc1OC,5.12
4,Cc1nc2nc[nH]n2c(=O)c1CCOC(=O)c1ccccc1F,9.17
5,CCN(CC)S(=O)(=O)c1ccc(N2CCOCC2)c(NC(=O)Cc2cccc3ccccc23)c1,12.9
6,CC(C)C[C@H]1CN=C(Nc2ccccc2)N1CC1CCCCC1,-9.04
7,CCN(C(=O)COC(=O)c1ccc(OC)c(S(=O)(=O)N2CCCc3ccccc32)c1)C1CCS(=O)(=O)C1 (stereo not drawn),15.6
8,CC1CC(C)CN(C(=O)C(C)N2CCN(S(=O)(=O)c3cccs3)CC2)C1 (stereo not drawn),7.33
9,CN(C)CCN=Cc1c(O)n(-c2cccc(C(F)(F)F)c2)c(=O)[nH]c1=O,12
10,O=C(CSc1nnc(-c2ccc(OC(F)F)cc2)o1)NC(=O)NCc1ccco1,-7.02
11,NC1=NC(c2cccnc2)n2c(nc3ccccc32)N1 (stereo not drawn),11.3
12,O=C1OC(Nc2nc(-c3ccc(F)cc3)cs2)c2ccccc21 (stereo not drawn),23.7
13,CCN1CCN(CCCNC(=O)c2ccc(NC(=O)C3=C(C)OCCS3)cc2)CC1,13.4
14,O=C(Cn1ncc2c3ccccc3n(Cc3ccccc3)c2c1=O)NCCCN1CCOCC1,2.54
15,CCc1ccc(-c2nc(NC(=S)NC(=O)c3cccs3)sc2C)cc1,9.56
16,COc1ccc(C(=O)N2CCCC(Nc3ccc(C(C)C)cc3)C2)c(OC)n1 (stereo not drawn),0.702
17,Cn1ncc(Cl)c1C(=O)NC1CCCC1,18.1
18,Cc1ccc(C(=O)C(C)OC(=O)Cc2n[nH]c(=O)c3ccccc23)cc1 (stereo not drawn),2.02
19,O=C(CSc1nnc(-c2ccccc2F)o1)N1CCCC1,11.7
20,CCOc1ccc(S(=O)(=O)NCCCN2CCOCC2)c2ccccc12,1.43
21,Cc1c(C)c2cc(Cl)c(O)c(CN3CCCC(C)C3)c2oc1=O (stereo not drawn),17
22,COc1ccccc1C(=O)NCCC(=O)NCCC12CC3CC(CC(C3)C1)C2,6.91

row,Structure (SMILES),"hERG current change (%, negative = inhibition) at 1uM [%]"
1,COCc1ccc(CN2CCCC(CO)(Cc3ccccc3C)C2)o1 (stereo not drawn),12.2
2,Cc1ccc(-c2[nH]nc3c2C(c2ccc(OC(=O)N4CCOCC4)cc2)C(C#N)=C(N)O3)cc1 (stereo not drawn),10.5
3,COc1ccccc1-c1ccc(SCc2cccc(C)c2)nn1,8.38
4,COc1ccc(S(=O)(=O)NNC(=S)NCCc2ccccc2)c(OC)c1,2.58
5,COc1ccc(C(=O)Nc2ccc(NC(=O)Cc3ccccc3)cn2)cc1,12.3
6,CCC(=O)c1ccc(OCC(=O)N(C)CC(=O)Nc2cccc(F)c2)cc1,4.85
7,CCOC(=O)CN(C)C(=O)CCc1nnc(-c2ccc(-c3ccccc3)cc2)o1,6.45
8,O=C(Nc1cc(S(=O)(=O)N2CCCCC2)ccc1N1CCOCC1)c1ccc(C(F)(F)F)cc1,-0.42
9,Cc1ccc(NC(=O)C2=C(C(=O)O)CCCC2)cc1F,14.4
10,CCCC1=C(C(=O)OCC)C(/C=C/c2ccccc2)n2ncnc2N1 (stereo not drawn),8.9
11,O=C(OCC(=O)N1CCCC1)c1cc(Cl)ccc1Cl,11.9
12,O=C(COC(=O)CCc1c[nH]c2ccccc12)NCc1ccc(Cl)cc1,4.52
13,Cc1ccc(S(=O)(=O)NC2CCCCCC2)cc1C(N)=O,4.19
14,CCOC(=O)Cc1csc(NC(=S)NC(=O)c2cccc([N+](=O)[O-])c2)n1,6.54
15,CC(C)c1ccc(NC(=O)[C@@H](C)NC(=O)[C@@H]2Cc3ccccc3CN2)cc1,-5.9
16,CCOC(=O)c1cc2sccc2n1CC(=O)c1ccc2c(c1)OCCO2,-3.39
17,CC1CN(S(=O)(=O)c2ccc(NC(=O)c3ccco3)cc2)CC(C)O1 (stereo not drawn),7.8
18,Cc1occc1-c1nnc(SCC(=O)NC2CCC(C)CC2)o1 (stereo not drawn),-5.89
19,CCCOc1ccc(C(=O)NC(=S)N2CCN(c3cc4c(cc3F)c(=O)c(C(=O)O)cn4CC)CC2)cc1,17.1
20,CC(C)CCNC(=O)CCSCCC(=O)NCCC(C)C,0.306
21,CCn1c(C2CCN(S(=O)(=O)c3ccc(OC)cc3)CC2)n[nH]c1=S,-1.17
